{"source": "ChEMBL document CHEMBL4888484", "about": "“Replenishing the malaria drug discovery pipeline: Screening and hit evaluation of the MMV Hit Generation Library 1 (HGL1) against asexual blood stage Plasmodium falciparum ,using a nano luciferase reporter read-out” (2022)", "note": "Out of some 150,000 compounds screened, about 540 (0.36%) showed an effect of 50% or more. Some of the results follow."}
{"system": "Plasmodium falciparum", "experiment": "Primary screen in NF54 nanoGlo assay, in single point, at 2uM, 72h; a lower Z score goes with more inhibition", "assay_type": "functional, Erythrocyte", "conditions": "timepoint 72 hour", "units": {"% Inhibition": "%"}}
{"smiles": "CN1CCC(N(Cc2cccnc2)C(=O)Nc2ccccc2C(F)(F)F)CC1", "% Inhibition": -10, "Z score": 1.43}
{"smiles": "Cc1cc(C)nc(CN(C)C[C@@H]2CC=CCC2)c1", "% Inhibition": -8, "Z score": 1.63}
{"smiles": "c1cc(-c2ccn(C[C@H]3COCCO3)n2)cc(-c2nccs2)c1", "% Inhibition": -16, "Z score": 1.48}
{"smiles": "O=C(Cc1cnn(-c2ccccc2)c1)NC1CC1", "% Inhibition": -5, "Z score": 0.77}
{"smiles": "CO[C@@H](C)c1nc(CN(C)C(=O)c2ccc(C(C)C)cn2)cs1", "% Inhibition": -10, "Z score": 1.76}
{"smiles": "Cc1nc(-c2ccccc2)c(C(=O)N(C)[C@@H](C)c2ccon2)s1", "% Inhibition": -5, "Z score": 0.77}
{"smiles": "COC(=O)c1ccnc(NS(=O)(=O)Cc2ccc(C)c(F)c2)c1", "% Inhibition": -13, "Z score": 1.16}
{"smiles": "CN(C)S(=O)(=O)N1CCC(CNS(=O)(=O)c2ccc(-n3cccn3)cc2)CC1", "% Inhibition": -4, "Z score": 0.51}
{"smiles": "CCOc1ccc(-c2cn(Cc3ccncc3)nn2)cc1Cl", "% Inhibition": -10, "Z score": 2.05}
{"smiles": "CCc1ncc2c(n1)CN(C(=O)c1cc(C3CC3)nc3ccccc13)C2", "% Inhibition": -11, "Z score": 1.04}
{"smiles": "O=C(Nc1ccccc1N1CCOCC1)[C@H]1CCCN(c2c(-c3ccccc3)c3cc(Cl)ccc3[nH]c2=O)C1", "% Inhibition": -44, "Z score": 5.17}
{"smiles": "CCOc1cccc2c1Oc1c(c(=O)n(-c3ccc(CC)cc3)n1CC(=O)NCc1ccccc1)C2", "% Inhibition": -16, "Z score": 1.63}
{"smiles": "C[C@@]1(C(=O)NC2(CN3CCCC3)CCCCC2)CCCO1", "% Inhibition": -12, "Z score": 1.23}
{"smiles": "CCOC[C@H](NCc1cc(C#N)ccc1F)C(C)C", "% Inhibition": -10, "Z score": 1.84}
{"smiles": "CC(C)(C)OC(=O)NC[C@H](O)c1ccccc1Cl", "% Inhibition": 0, "Z score": 0.01}
{"smiles": "N#CCNC(=O)c1cccc(Br)c1", "% Inhibition": 9, "Z score": -1.24}
{"smiles": "CNC(=O)[C@@H]1C[C@@H](Nc2ncccn2)CN1Cc1coc(-c2ccccc2)n1", "% Inhibition": -11, "Z score": 1}
{"smiles": "CCc1cccc(NC(=O)c2ccc3c(=O)n4c(nc3c2)CCCC4)c1", "% Inhibition": -1, "Z score": 0.16}
{"smiles": "C[C@H](Nc1ccc(Cl)c(F)c1)C(=O)NC(N)=O", "% Inhibition": -2, "Z score": 0.22}
{"smiles": "Cc1cn(C)nc1NC(=O)N1CC(O)(c2cccc(Br)c2)C1", "% Inhibition": -5, "Z score": 0.78}
{"smiles": "O=C(Cn1c(=O)cnc2ccccc21)N1CCCc2ccccc21", "% Inhibition": 1, "Z score": -0.26}
{"smiles": "CN(C)Cc1ccccc1C(=O)N1CCN(c2nc[nH]n2)CC1", "% Inhibition": -7, "Z score": 0.99}
{"smiles": "Cc1cc2c(N3CCC[C@@H]3CO)nccn2n1", "% Inhibition": -11, "Z score": 1.44}
{"smiles": "CCOCCn1cnc(-c2ccccc2)c1-c1cnc2cc(O)ccc2c1", "% Inhibition": -1, "Z score": 0.14}
{"smiles": "N#Cc1cccc(Nc2c3c(nc4ccc(Cl)cc24)CCCC3)c1", "% Inhibition": -6, "Z score": 0.83}
{"smiles": "COc1cc(C)cc2c(C)c(C(=O)N3CC(C(F)(F)F)C3)oc12", "% Inhibition": -5, "Z score": 0.64}
{"smiles": "CCOC(=O)N1CCC(Nc2nnc(C)o2)CC1", "% Inhibition": -16, "Z score": 2.08}
{"smiles": "O=S(=O)(c1ccc(F)cc1)N1CCN(Cc2nc3ccccc3o2)CC1", "% Inhibition": -26, "Z score": 2.29}
{"smiles": "Cc1ccsc1S(=O)(=O)N1CC2(CCC2(F)F)C1", "% Inhibition": 1, "Z score": -0.27}
{"smiles": "C[C@H](O)[C@H](C(=O)O)n1cnc(-c2ccccc2)c1-c1ccc(N(C)C)nc1", "% Inhibition": -15, "Z score": 2.91}
{"smiles": "CCO[C@H]1CN(C(=O)c2cc(C)oc2C)C[C@@H]1O", "% Inhibition": 5, "Z score": -0.84}
{"smiles": "O=S(=O)(c1ccc2oc3ccc(S(=O)(=O)N4CCCC4)cc3c2c1)N1CCCC1", "% Inhibition": -14, "Z score": 1.79}
{"smiles": "O=C1N(CC2CCC2)CCC[C@@]1(O)CNC1Cc2ccccc2C1", "% Inhibition": -24, "Z score": 2.15}
{"smiles": "Cc1ccc(N(Cc2ccco2)C(=O)c2ccc(C(N)=O)cn2)cc1", "% Inhibition": -1, "Z score": 0.14}
{"smiles": "CCCNC(=O)NC(=O)COc1ccc(Br)cc1C#N", "% Inhibition": -10, "Z score": 1.3}
{"smiles": "CC(C)=CCN1CCC(CNC(=O)c2cnn(C)c2C)CC1", "% Inhibition": -2, "Z score": 0.23}
{"smiles": "CCNc1nc(C(=O)N2CCN(C3CC3)C[C@H](C)C2)cs1", "% Inhibition": -7, "Z score": 1}
{"smiles": "O=C([C@H]1CCCNCC1)N1CC=C(c2ccccc2)CC1", "% Inhibition": 1, "Z score": -0.11}
{"smiles": "CN(C(=O)NCCCc1nc(-c2ccccn2)cs1)C1CCCC1", "% Inhibition": -13, "Z score": 2.27}
{"smiles": "O=S(=O)(CC1CC2(CCC2)C1)N1CC2(CCC2)[C@H]1c1ccncc1", "% Inhibition": -7, "Z score": 1.05}
{"smiles": "O=C(NCc1ccc2c(c1)CCCC2)[C@@H]1CNCCO1", "% Inhibition": -7, "Z score": 1.1}
{"smiles": "COc1cc(C)ccc1CNC1CS(=O)(=O)C1", "% Inhibition": 0, "Z score": 0.06}
{"smiles": "CCCc1cc(C(=O)NS(=O)(=O)CC2CC2)[nH]n1", "% Inhibition": 25, "Z score": -2.86}
{"smiles": "O=C(CCS(=O)(=O)c1ccccc1)N1CC[C@H](Oc2cc(C(F)(F)F)ccn2)C1", "% Inhibition": -6, "Z score": 1.09}
{"smiles": "O=S(=O)(N[C@H](c1c[nH]c2ccccc12)C(Cl)(Cl)Cl)c1ccc(Cl)cc1", "% Inhibition": -5, "Z score": 0.64}
{"smiles": "Cc1nc(CCNC(=O)C[C@H]2C(=O)NCCN2Cc2ccccc2)no1", "% Inhibition": -4, "Z score": 0.78}
{"smiles": "CCc1nc(C)cc(N(C)CCn2nc(C)cc2C)n1", "% Inhibition": -18, "Z score": 1.72}
{"smiles": "OC[C@H](Cc1c[nH]c2ccccc12)Nc1ccc2nnnn2n1", "% Inhibition": -4, "Z score": 0.68}
{"smiles": "O=C(O)c1cc(-c2cccc3ccnn23)cc(S(=O)(=O)N2CCCCCC2)c1", "% Inhibition": -3, "Z score": 0.51}
{"smiles": "Cc1cccc2c1C(=O)N(CCc1ccccc1)[C@@H](c1ccc(N3CCN(C)CC3)cc1)N2", "% Inhibition": 4, "Z score": -0.59}
{"smiles": "CCOc1ccc(NC(=O)C2CCN(S(=O)(=O)c3ccc(-c4noc(C5CC5)n4)cc3)CC2)cc1", "% Inhibition": -24, "Z score": 2.9}
{"smiles": "COCC(=O)Nc1cc2nc(-c3ccccc3)oc2nc1C", "% Inhibition": -16, "Z score": 2.1}
{"smiles": "N[C@H]1C[C@H](c2cc(NCCCc3cccnc3)nc(C3CC3)n2)C1", "% Inhibition": 71, "Z score": -7.09}
{"smiles": "CC1(C)C(c2ccccn2)=[N+]([O-])C(C)(C)N1O", "% Inhibition": -7, "Z score": 1.39}
{"smiles": "CN(C[C@H]1CCCCO1)C(=O)CCc1ccc(=O)[nH]n1", "% Inhibition": -2, "Z score": 0.34}
{"smiles": "COc1cccc(C(=O)N2CCC(N3C[C@H](O)C[C@H]3C(=O)N3CCc4ccccc4C3)CC2)c1", "% Inhibition": -10, "Z score": 1.29}
{"smiles": "COc1ccc2ncc(OCC3(C)COC3)nc2c1", "% Inhibition": -6, "Z score": 1.05}
{"smiles": "CCC(NC(=O)CC1CCCCO1)(C(N)=O)C(C)C", "note": "(stereo not given)", "% Inhibition": -9, "Z score": 1.03}
{"smiles": "Cc1nc(OCC(=O)NCc2cccnc2)c2c(-c3ccc(F)cc3)noc2n1", "% Inhibition": 0, "Z score": -0.04}
{"smiles": "OC1CC2CCC(C1)N2Cc1ccn(-c2ccccc2)n1", "note": "(stereo not given)", "% Inhibition": 32, "Z score": -3.67}
{"smiles": "CCCC(=O)Nc1ccc(N(C)C)nc1", "% Inhibition": -5, "Z score": 0.43}
{"smiles": "CN(CCC(=O)N1CCOCC1)Cc1cccc(C#N)c1", "% Inhibition": -11, "Z score": 1.51}
{"smiles": "O=C(O)C1(Oc2cccc(F)c2)CCN(CCCc2ccccc2)CC1", "% Inhibition": -2, "Z score": 0.43}
{"smiles": "CCn1cc(S(=O)(=O)Nc2nnc(CC3CCCC3)s2)cn1", "% Inhibition": 30, "Z score": -3.42}
{"smiles": "NCC1CCCN(C(=O)[C@H]2C[C@@H]2c2ccccc2C(F)(F)F)C1", "note": "(stereo not given in full)", "% Inhibition": -2, "Z score": 0.43}
{"smiles": "CC1(C)C[C@@](C)(c2ccccc2)c2ccccc2N1CC(=O)c1ccccc1", "% Inhibition": 7, "Z score": -0.85}
{"smiles": "CC(C)c1nc(CCNC(=O)N(C)Cc2cscn2)no1", "% Inhibition": -4, "Z score": 0.59}
{"smiles": "COc1ccc(C(=O)N(CCN2CCCC2)C2CCOCC2)c(C)c1", "% Inhibition": -12, "Z score": 2.01}
{"smiles": "CNC(=O)Cc1noc(C2(c3ccccc3)CCC2)n1", "% Inhibition": 8, "Z score": -1.15}
{"smiles": "c1cc(-c2ccn[nH]2)cc(-c2nccs2)c1", "% Inhibition": -7, "Z score": 0.94}
{"smiles": "Cc1cccc(-c2nc3ccc(C(=O)NCc4ccc(F)cc4)cc3nc2-c2cccc(C)c2)c1", "% Inhibition": 11, "Z score": -1.91}
{"smiles": "CC1CN(C(=O)c2cc3n(n2)[C@H](C(F)(F)F)C[C@H](c2ccco2)N3)CC(C)O1", "note": "(stereo not given in full)", "% Inhibition": -4, "Z score": 0.59}
{"smiles": "CN(CCO)CC(=O)NCCc1cccs1", "% Inhibition": -3, "Z score": 0.54}
{"smiles": "COCCc1nncn1C1CCN(C(=O)c2cc(C)ccc2C)CC1", "% Inhibition": -2, "Z score": 0.37}
{"smiles": "COC1CCN(S(=O)(=O)N2CCOC[C@H]2c2cccc(F)c2)CC1", "% Inhibition": -14, "Z score": 1.31}
{"smiles": "CC(CN1CCN2C(=O)NCC2C1)c1cccc(Br)c1", "note": "(stereo not given)", "% Inhibition": -10, "Z score": 1.04}
{"smiles": "CN(C)S(=O)(=O)N1C[C@H]2CC[C@@H](C1)N(Cc1cccc(C#N)c1)C2", "% Inhibition": -16, "Z score": 1.88}
{"smiles": "O=C(c1cccc(CO)n1)N1CCC(c2cc(N3CCCC3)ncn2)CC1", "% Inhibition": -12, "Z score": 2.42}
{"smiles": "CCn1nc(C)cc1C(=O)Nc1cc(O[C@@H](C)c2ccccc2)ccn1", "% Inhibition": -3, "Z score": 0.55}
{"smiles": "COc1cc(N2C(=O)CN(Cc3ccccc3O)C2=O)ccn1", "% Inhibition": -2, "Z score": 0.25}
{"smiles": "COC(=O)Nc1cccc(N[C@@H](C)C2CCOCC2)c1", "% Inhibition": -4, "Z score": 0.33}
{"smiles": "Cc1cc2c(cc1C)N(CC(=O)N1CCC(Cc3ccccc3)CC1)C(=O)CC(c1cccs1)=N2", "% Inhibition": -11, "Z score": 1.22}
{"smiles": "Cc1nn(CC(=O)NCCC2=CCCCC2)c(=O)n1C", "% Inhibition": -3, "Z score": 0.39}
{"smiles": "C[C@@]12CCCN1C(=O)[C@@H](c1ccc(O)cc1)NC2=O", "% Inhibition": -10, "Z score": 1.62}
{"smiles": "COc1ccc(-c2n[nH]c3c2C(=O)C[C@@H](c2ccccc2)C3)cc1", "% Inhibition": -5, "Z score": 0.48}
